{"source": "ChEMBL document CHEMBL4888484", "about": "“Replenishing the malaria drug discovery pipeline: Screening and hit evaluation of the MMV Hit Generation Library 1 (HGL1) against asexual blood stage Plasmodium falciparum ,using a nano luciferase reporter read-out” (2022)", "note": "The whole screen tested about 150,000 compounds, of which about 540 (0.36%) showed an effect of 50% or more. The list shows a part of the results."}
{"test_system": "Plasmodium falciparum", "assay": "Primary screen in NF54 nanoGlo assay, in single point, at 2uM, 72h; a lower Z score goes with more inhibition", "format": "functional, Erythrocyte", "details": "timepoint 72 hour", "units": {"% Inhibition": "%"}}
{"smiles": "COC[C@H]1CN(C(=O)c2sccc2C)CC12CCOCC2", "% Inhibition": 9, "Z score": -1.64}
{"smiles": "CO[C@H]1CN(C(=O)Cc2cc(C)ccc2C)C[C@@H]1O", "% Inhibition": 2, "Z score": -0.35}
{"smiles": "Cc1nc(CC(=O)NCCc2c[nH]cn2)cs1", "% Inhibition": -1, "Z score": 0.12}
{"smiles": "CC(C)c1ccc([C@@H](C)CC(=O)Nc2ccn(C)c(=O)n2)cc1", "% Inhibition": 11, "Z score": -1.25}
{"smiles": "O=C1NC(C2CCOCC2)C(=O)N1CC1CC=CCC1", "note": "(stereo not drawn)", "% Inhibition": -1, "Z score": 0.08}
{"smiles": "Cc1cc(C)c2c(c1)CN(C(=O)C[C@@H](O)CC(C)(C)C)CC2", "% Inhibition": -4, "Z score": 0.48}
{"smiles": "CC(C)[C@H](NC(=O)Cn1cnc2ccccc2c1=O)c1nc2ccccc2n1C(C)C", "% Inhibition": -14, "Z score": 1.81}
{"smiles": "O[C@H]1CCCN(C2CCN(Cc3c(Cl)cncc3Cl)CC2)C1", "% Inhibition": 8, "Z score": -1.65}
{"smiles": "CC1CCC(NC(=O)C(c2ccccc2)c2ccccc2)CC1", "note": "(stereo not drawn)", "% Inhibition": 46, "Z score": -1.74}
{"smiles": "CO[C@@H](C)CS(=O)(=O)NC1CCC(F)(F)CC1", "% Inhibition": 5, "Z score": -0.64}
{"smiles": "CN(C)c1cccc(C(=O)N/C(=N/c2ccc(F)cc2)NCCN2CCOCC2)c1", "% Inhibition": -11, "Z score": 1.01}
{"smiles": "CC(C)NC(=O)CNc1cncc(Br)c1", "% Inhibition": -10, "Z score": 1.6}
{"smiles": "CCn1cccc1-c1nc(C)c(C(=O)Nc2ccc(C)c(C)c2)s1", "% Inhibition": 11, "Z score": -1.73}
{"smiles": "COCCC1(CNC(=O)N[C@@H](C)c2nccs2)CCCC1", "% Inhibition": -5, "Z score": 0.72}
{"smiles": "CC1=CC[C@H]2CN(C(=O)c3ccccc3N3CCC(=O)NC3=O)C[C@H]2C1", "% Inhibition": -5, "Z score": 1}
{"smiles": "Cc1noc(CCCNC(=O)[C@H]2CCc3[nH]cnc3C2)n1", "% Inhibition": -9, "Z score": 1.57}
{"smiles": "O=S(=O)(N[C@H]1CCCc2ccccc21)c1cnn2c1OCCC2", "% Inhibition": -10, "Z score": 1.49}
{"smiles": "CCc1cc(-c2ccc(C(=O)N3C[C@@H](C)O[C@@H](C)C3)cc2)nc(N(C)C)n1", "% Inhibition": -8, "Z score": 1.56}
{"smiles": "CC(C)NC(=O)CCCc1ccccc1", "% Inhibition": -11, "Z score": 1.49}
{"smiles": "O=C(Cc1c[nH]c2ccccc12)Nc1ccc2nc(N3CCCC3)sc2c1", "% Inhibition": 0, "Z score": 0.07}
{"smiles": "CCc1ccc(F)cc1C(=O)N[C@@H](CC1CC1)C(=O)O", "% Inhibition": 2, "Z score": -0.34}
{"smiles": "COc1ccc(Cl)cc1NC(=O)COC(=O)CCS(=O)(=O)c1ccc2ccccc2c1", "% Inhibition": 7, "Z score": -0.84}
{"smiles": "Cc1ccsc1-c1nnc(CC(=O)NCc2ccc(F)cc2)o1", "% Inhibition": 10, "Z score": -0.96}
{"smiles": "O=C(c1ncoc1-c1cccs1)N1CCOC[C@H]1C1CC1", "% Inhibition": -4, "Z score": 0.51}
{"smiles": "COCC(=O)Nc1cc(C(=O)O)c2c(c1)nc(C1CCC1)n2C", "% Inhibition": 0, "Z score": -0.08}
{"smiles": "CC(NC(CC1CCC1)c1ccccc1)c1cn(C)cn1", "note": "(stereo not drawn)", "% Inhibition": 6, "Z score": -1.14}
{"smiles": "CC(C)C(=O)N[C@@H](C)c1ccc(Br)cc1OCCCO", "% Inhibition": 28, "Z score": -2.85}
{"smiles": "COc1ccc(-c2noc(-c3ccc(N4CCCCC4)nn3)n2)cc1", "% Inhibition": -7, "Z score": 0.8}
{"smiles": "O=C(COc1ccccc1)N1CC(n2cnnc2C2CCOCC2)C1", "% Inhibition": -9, "Z score": 1.66}
{"smiles": "Cn1nnc2ccc(-c3noc(CNC(=O)c4cccs4)n3)cc21", "% Inhibition": 0, "Z score": -0.08}
{"smiles": "Cc1ccc(C(=C2C3C=CC2C2C(=O)NC(=O)C32)c2ccc(C)cc2)cc1", "note": "(stereo not drawn)", "% Inhibition": -1, "Z score": 0.16}
{"smiles": "O=C(Nc1ccccc1-c1ccc(=O)[nH]n1)C1CCN(c2ccc(-n3cccn3)nn2)CC1", "% Inhibition": -20, "Z score": 2.5}
{"smiles": "O=C(O)c1cc2cc(-c3ccccc3)cc3c2n(c1=O)CCC3", "% Inhibition": 1, "Z score": -0.1}
{"smiles": "CCc1nn(-c2ccccc2)c2c1CN(C(=O)Nc1cccc(OC)c1)[C@H](c1cccc(C)c1)c1cccn1-2", "% Inhibition": -11, "Z score": 2.02}
{"smiles": "c1ccc2[nH]c(-c3cccc4nonc34)nc2c1", "% Inhibition": -7, "Z score": 1.3}
{"smiles": "CN(Cc1cnc(NC[C@H]2CCCO2)nc1)Cc1nccs1", "% Inhibition": -9, "Z score": 1.33}
{"smiles": "O=C1CN(c2ccc(NC(=O)C3=CCCCC3)cn2)CCN1", "% Inhibition": -7, "Z score": 0.75}
{"smiles": "COc1cc(-c2onc(C)c2C(=O)N[C@H]2CCC[C@@H]2OCc2ccccc2)cc(OC)c1OC", "% Inhibition": -14, "Z score": 1.3}
{"smiles": "NC(=O)[C@H]1CCCN(CCNC(=O)Nc2ccc(-c3cn[nH]c3)cc2)C1", "% Inhibition": -1, "Z score": 0.11}
{"smiles": "O=C(Cn1ncc(=O)c2ccccc21)NCc1ccncc1", "% Inhibition": -8, "Z score": 1.43}
{"smiles": "CCOC(=O)c1c(NC(=O)C2CCOCC2)c2c(F)cccc2n1C", "% Inhibition": -8, "Z score": 1.47}
{"smiles": "CC(C)c1nsc(NCc2cncc(F)c2)n1", "% Inhibition": -48, "Z score": 5.67}
{"smiles": "COc1ccc(CNC(=O)c2ccc(N3C(=O)[C@@H](C)CS3(=O)=O)cc2Cl)cc1OC", "% Inhibition": -13, "Z score": 1.66}
{"smiles": "O=C1NC2(CCN(S(=O)(=O)c3ccccc3)CC2)N=C1c1ccccc1", "% Inhibition": -13, "Z score": 1.62}
{"smiles": "CCOC(=O)Cc1csc(NC(=O)Cn2cc(OC)c(=O)cc2C)n1", "% Inhibition": 3, "Z score": -0.42}
{"smiles": "Cc1cc(NC(=O)CCc2nnc[nH]2)n(-c2cc(C(F)(F)F)ccc2Cl)n1", "% Inhibition": -12, "Z score": 1.74}
{"smiles": "CCc1noc(Cn2ccc(=O)c3sccc32)n1", "% Inhibition": 0, "Z score": -0.09}
{"smiles": "Cc1ccc(Cl)cc1NC(=O)N(C)CCc1noc(C(=O)NCc2ccc(F)cc2)n1", "% Inhibition": -4, "Z score": 0.35}
{"smiles": "COC(=O)CN(Cc1ccc2cn[nH]c2c1)C1CCCC1", "% Inhibition": -6, "Z score": 0.69}
{"smiles": "Cc1nnc(CNC(=O)Nc2ncc(C(C)C)s2)n1C", "% Inhibition": 10, "Z score": -1.18}
{"smiles": "COCC[C@]1(NC(=O)c2ccc(F)cc2)CCN(C(=O)Cn2cccn2)C1", "% Inhibition": 3, "Z score": -0.46}
{"smiles": "CC(=O)N1CCC(CC(=O)NCCC2=CCCCC2)(N2Cc3ccccc3C2=O)CC1", "% Inhibition": -9, "Z score": 1.31}
{"smiles": "CC(=O)Oc1c(-c2ccc(NC(=O)C(C)C)cc2)c(-c2cccc(F)c2)nn1-c1ccc(C)cc1", "% Inhibition": -10, "Z score": 1.39}
{"smiles": "CC(C)c1nccc(N2CCC3(CC2)C[C@@H]3C(=O)O)n1", "% Inhibition": -13, "Z score": 2.64}
